# Measured values as given in PubChem BioAssay AID743279 (National Center for Advancing Translational Sciences (NCATS), 2014).
# About 17,000 (4.7%) of roughly 360,000 compounds were called active. The shares of active, inactive and inconclusive entries below differ from those in the screen. Cut-off read from the data, not from the text of the source: active = activity change below about -50%; inconclusive = mostly about -30% to -49%; inactive = weaker than that.
# Experiment: qHTS for Inhibitors of Inflammasome Signaling: IL-1-beta AlphaLISA Primary Screen
# Conditions: THP-1 LPS/ATP IL-1B secretion, 16 h; at 57.5 µM, hits give low values
# Method in brief: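 Secreted IL-1B measured by AlphaLISA bead assay after 16 h compound exposure of THP-1 cells; compounds (final up to 57.5 uM) added 1 h before LPS (250 ng/mL) and ATP (1.25 mM) stimulation; lower signal means less secretion.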
# % is set by controls: 0 for no effect and ±100 for the full control effect.
row,SMILES,activity change
1,CCN(CC)C(=O)CC(c1cc(OC)c(OC)c(OC)c1)c1c(OC)cc(OC)c2c(-c3ccccc3)cc(=O)oc12 (centres undefined),inconclusive: -42.5%
2,Cc1ccc(C(=O)NC(=S)NNC(=O)c2cccc([N+](=O)[O-])c2)cc1,inactive: 34.3%
3,CC(C)(C)OC(=O)N(Cc1ccccc1)Cc1cccc(OCc2cccc(NC(=O)C3CC3)c2)c1,inconclusive: -35.9%
4,Cc1cc(=O)oc2c(N)nccc12,active: -105%
5,CN(C)CCNC(=O)/C(=C/c1ccc(-c2ccc(Cl)cc2Cl)o1)NC(=O)c1ccccc1,active: -67.2%
6,Cc1ccc(S(=O)(=O)N(C)C)cc1NC(=O)C1CCCCC1,inactive: 33.5%
7,Cc1c(OC(C)C(=O)NCc2ccncc2)ccc2c3c(c(=O)oc12)CCCC3 (centres undefined),inconclusive: -40.7%
8,COc1ccc(-c2cc(C(=O)N3CCCCCC3)c3ccccc3n2)cc1OC,inconclusive: -41.8%
9,c1ccc(Oc2nc(-c3ccccn3)nc3ccccc23)cc1,inconclusive: -33.1%
10,CN(C(=O)CSc1ncnc2ccccc12)C1CCCCC1,active: -88.7%
11,N#Cc1ccccc1NC(=O)CN1C(=O)NC(Cc2c[nH]c3ccccc23)C1=O (centres undefined),inactive: 17.8%
12,CCCCc1c(C)c2ccc(OC)c(/C(C)=N\O)c2oc1=O,inconclusive: -32.1%
13,CN1CCN(c2nc3c(c(=O)n(C)c(=O)n3C)n2Cc2cccc(Br)c2)CC1,inconclusive: -36%
14,CCOc1ccc(C(=O)N(Cc2ccccc2)c2cccc(C)c2)cc1OC,inconclusive: -35%
15,COc1ccc([C@H]2CC(=O)C=C(c3ccc4ccccc4c3)C2)cc1OC,inconclusive: -38.3%
16,CN(C(=O)c1ccc(OC2CCN(Cc3ccccn3)CC2)cc1)C1CCCCC1,inactive: -6.88%
17,CC(=O)Nc1ccc(S(=O)(=O)NCc2nc(-c3ccccc3Cl)no2)cc1,inactive: 11.3%
18,CCCSc1nnc2n(-c3ccccc3OC)c(=O)c3c4c(sc3n12)CCC4,inconclusive: -38.7%
19,COc1ccc(CCNC(=O)c2cccn2C)cc1,inconclusive: -43.4%
20,CCCC(c1nnnn1C(C)(C)CC)N1CCN(C(=O)c2ccco2)CC1 (centres undefined),inactive: -7.69%
21,CN(CC(=O)Nc1ccc(Cl)c(Cl)c1)CC(=O)N1CCCCCC1,inactive: -14.7%

row,SMILES,activity change
1,Cn1c(=O)[nH]c2nnc(-c3ccc(Cl)c(Cl)c3)nc2c1=O,inactive: -16.9%
2,CC(C)CC(N)c1csc(NC(=O)Nc2ccccc2C(C)(C)C)n1 (centres undefined),inconclusive: -45.7%
3,Cc1cccnc1C(NC(=O)C1CCN(Cc2ccc(Oc3ccccc3)cc2)CC1)c1ccccc1 (centres undefined),inconclusive: -44.2%
4,O=C1Nc2ccccc2C1(O)c1ccccc1 (centres undefined),inactive: -5.69%
5,CCCc1ccc(-c2cc(C(=O)NCCc3ccc(S(N)(=O)=O)cc3)c3ccccc3n2)cc1,inconclusive: -47.3%
6,CCn1c2ccc(C)cc2c2nnc(SCCN3CCCCC3)nc21,active: -66.4%
7,O=C(NCc1cccnc1)[C@@H]1CC=C[C@@H]2CCN(Cc3ccc(Cl)c(Cl)c3)C(=O)[C@@H]21,inactive: -7.47%
8,O=C(c1cccc2ccccc12)N1CCN=C1SCc1ccc([N+](=O)[O-])cc1,active: -64.8%
9,O=C1CN(S(=O)(=O)c2ccc(Br)cc2)c2ccccc2N1,inactive: -13.7%
10,Cc1ccc(Cn2ccsc2=NC(=O)CCl)cc1,active: -100%
11,COc1ccc(N2CCN(C(c3cccc(OC)c3OC)c3nnnn3C3CCCC3)CC2)cc1 (centres undefined),inconclusive: -37.7%
12,CCOC(=O)C1=C(CSc2nc(-c3ccncc3)ccc2C#N)OC(N)=C(C#N)C1c1cccnc1 (centres undefined),inconclusive: -48.9%
13,COc1cccc(C(=O)C2CN(c3ccccc3)CC2c2ccc(Cl)cc2)c1 (centres undefined),inconclusive: -30.8%
14,Cc1ccc(-c2noc(C3CCCN(C(=O)c4ccc(F)cc4F)C3)n2)cc1 (centres undefined),inconclusive: -47.3%
15,O=C(NCCc1ccccc1)C(=O)NCCC1CCCCN1S(=O)(=O)c1ccccc1 (centres undefined),inconclusive: -43.9%
16,O=C(CNc1cccc2ccccc12)N/N=C/C=C/c1ccco1,inconclusive: -33.8%
17,CCCS(=O)(=O)N1CCCC(c2nc(-c3ccc(OC)cc3)no2)C1 (centres undefined),inconclusive: -48.3%
18,Cc1ccc(-c2noc(CCC(=O)Nc3ccccc3N3CCN(C)CC3)n2)cc1,inconclusive: -32%
19,Cc1ccc2[nH]c3c(=O)n(CC(=O)NCCCN4CCN(c5ccc(F)cc5)CC4)ncc3c2c1,inconclusive: -33.4%
20,CCOC(=O)c1c2ccc(OCC(=O)NN)cc2n2ccccc12,inconclusive: -46.9%
21,CCOC(=O)Cn1ccc(NC(=O)c2ccc3c(c2)OCO3)n1,active: -95.3%

row,SMILES,activity change
1,CCc1nc2c(OCc3ccc(C(F)(F)F)cc3)cccn2c1N(C)C(=O)c1ccc(C)cc1,active: -76%
2,CC(C)N(C(=O)CSc1ncnc2sc(-c3ccccc3)cc12)C(C)C,inactive: 7.41%
3,COC(=O)[C@]12CCCCC=C1N(Cc1ccc3c(c1)OCO3)C(=O)[C@H](CC(=O)NCC1CCCCC1)C2,inactive: -29.4%
4,COc1ccc(OC)c(-c2cc(C(=O)N/N=C/c3cc(OC)c(OC)cc3OC)c3ccccc3n2)c1,inconclusive: -40.5%
5,O=C(Nc1ccccc1)N1CCc2scc[n+]2-c2ccccc21,inconclusive: -30.3%
6,CCN(Cc1ccccc1)S(=O)(=O)c1ccc(C(=O)Nc2nnc(C3CC3)o2)cc1,inactive: 36.2%
7,O=C(N[C@@H]1CCC(=O)N(CC[C@H](Sc2ccc(Br)cc2)c2ccccc2)CC1)OCc1ccccc1,inconclusive: -37%
8,COc1ccc(C2=CC(c3ccc(OC)c(OC)c3)n3nnnc3N2)c(OC)c1 (centres undefined),inactive: 19.9%
9,CCn1c(=O)c(CCC(=O)N2CCOCC2)c(C)c2c(C)nn(-c3ccccc3)c21,inconclusive: -48.1%
10,O=C(COc1ccc(C(=S)N2CCOCC2)cc1)Nc1ccccc1C(F)(F)F,inconclusive: -46%
11,Cc1cccc(CCN(C(=O)Cc2cccs2)C(C(=O)NC2CCCCC2)c2cccnc2)c1 (centres undefined),inconclusive: -34.7%
12,CC1=C(C(=O)OCC2CCCO2)C(c2ccsc2)C2=C(CCCC2=O)N1 (centres undefined),inactive: 10.3%
13,O=[N+]([O-])c1ccc(N/N=C/c2cn(-c3ccccc3)nc2-c2ccccc2)cc1,inactive: 0.773%
14,O=c1oc(-c2ccccc2)cc(Cl)c1Cl,active: -99.5%
15,CSc1cccc(NC(=O)c2[nH]c(C)c(C(C)=O)c2C)c1,inconclusive: -42.1%
16,C=C1C(=O)[C@@]23[C@H](O)C[C@@H]4C(C)(C)CC[C@H](O)[C@]4(C)[C@@H]2C[C@H](O)[C@@H]1[C@H]3O,inconclusive: -40.2%
17,CCOc1cc(/C=N/NC(=O)c2ccc(CN3CCOCC3)cc2)ccc1OC,inactive: 0%
18,Cc1ccc(N(CC(=O)Nc2cc(Cl)ccc2Oc2ccccc2)S(C)(=O)=O)cc1C,inconclusive: -46.8%
19,O=C(NCc1ccccc1)C(C(=O)c1ccc(F)cc1)n1ccccc1=O (centres undefined),inactive: -4.2%
20,CC1CCN(S(=O)(=O)c2ccc(NC(=O)CN3CCN(c4ccccc4)CC3)cc2)CC1,inactive: -0.351%
21,Cc1cscc1-c1ccc(C(=O)Nc2c(C)cccc2C)o1,inconclusive: -30.7%

row,SMILES,activity change
1,Cn1c(/C(C#N)=C(\O)CN2CCN(Cc3ccccc3)CC2)nc2ccccc21,inactive: -9.68%
2,O=C(COC(=O)COc1ccc(Cl)cc1)Nc1ncc(Br)s1,inactive: 0.57%
3,CCc1nc2ccc(C(=O)N3CCN(C(=O)c4ccco4)CC3)cn2c1N(C)Cc1nccs1,inactive: -8.4%
4,CCN1C(=O)C(CC(=O)Nc2ccc(F)cc2)N(CCc2ccc(OC)cc2)C1=S (centres undefined),inconclusive: -37.2%
5,O=C1CN(S(=O)(=O)c2ccccc2)CCN1S(=O)(=O)c1ccccc1,inconclusive: -36.5%
6,CC1(C)CN(C(=S)Nc2ccc(F)cc2F)C1=O,inactive: -11.8%
7,Cc1cc2ccccc2n1CCNC(=O)Cc1cccc2ccccc12,inconclusive: -30.8%
8,COc1ccc2cc1Oc1ccc(cc1)C[C@H]1c3cc(c(OC)cc3CCN1C)Oc1c(OC)c(OC)cc3c1[C@@H](C2)N(C)CC3,inconclusive: -32.3%
9,Cc1ccc(S(=O)(=O)CCC(=O)NCCN2C(=O)S/C(=C\c3ccccc3)C2=O)cc1,inconclusive: -45.9%
10,COc1cccc(N(CC(=O)NCCN2CCOCC2)S(=O)(=O)c2ccccc2)c1,inactive: -4.99%
11,Cc1c(NC(=O)C(=O)/C=C(\O)c2ccc(Br)cc2)c(=O)n(-c2ccccc2)n1C,inactive: -0.0945%
12,CCN(CC)S(=O)(=O)c1cccc(C(=O)Nc2cc(C)on2)c1,inactive: 14.2%
13,OC(CNCc1ccco1)Cn1c2ccccc2c2ccccc21 (centres undefined),inconclusive: -37.3%
14,Cc1cccc(C)c1NC(=O)CN(C)C(=O)CN1C(=O)NC(C)(C)C1=O,inactive: 3.46%
15,O=C(c1ccsc1)N1CCCC(N2CCN(c3cccc(Cl)c3)CC2)C1 (centres undefined),inconclusive: -45.3%
16,O=C1NN=C(c2ccc(Cl)cc2)CC1c1c[nH]c2ccccc12 (centres undefined),inconclusive: -38.6%
17,COc1cc(-c2cnc3c(NC=O)cc(-c4ccc(C)cc4)cn23)cc(OC)c1OC,inactive: 112%
18,Cc1cc2cc(NC(=O)c3ccco3)ccc2[nH]1,inconclusive: -36.5%
19,CN(C)c1ccnc2sc(C(=O)c3ccc(Br)cc3)c(N)c12,inconclusive: -40.6%
20,CN(C)C(=O)C(CCN1CCC(O)(c2ccc(Cl)cc2)CC1)(c1ccccc1)c1ccccc1,active: -58.6%
21,Cc1ccccc1NC(=O)Nc1nc(C(N)C2CCCCC2)cs1 (centres undefined),active: -54.4%
